In all, about 81,000 sequences were measured (“one-hybrid fitness for binding parS DNA”: median about -0.17, highest 2% from about 0.51 on). The list shows a part of the results.
B1: Caulobacter ParB omega fusion; a variant is named by its letters at X, in order, B8GW30 (parent)
chain: MESVVVGEPGMSEGRRGLGRGLSALLGEVDAAPAQAPGEQLGGSREAPIEILQRNPDQPRRTFREEDLEDLSNSIREKGVLQPILVRPSPDTAGEYQIVAGERAWRAAQRAGLKTVPIMVRELDDLAVLEIGIIENVQRADLNVLEEALSYKVLMEKFERTQENIAQTIGKSXSHVANXMRLLXLPDEVQSYLVSGELTAXHARAIAAAADPVALAKQIIEGGLSVRETEALARKAPNLSAGKSKGGRPPRVKDTDTQALESDLSSVLGLDVSIDHRGSTGTLTITYATLEQLDDLCNRLTRGI

Variants of: B1
Experiment: one-hybrid fitness for binding parS DNA (scaled: cognate 1, non-cognate 0); higher = stronger binding
Settings: with parS DNA site
In short: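 Caulobacter ParB libraries with four specificity codons randomised were screened by bacterial one-hybrid selection in the E. coli USO strain, using a HIS3 reporter whose site lies 19 bp from the promoter. Selection ran for 48 hours at 37°C on M9 lacking histidine, with 0.1 mM IPTG and 5 mM 3-AT. Plasmids were Illumina-sequenced before and after selection, three replicate libraries were pooled, and variants with under 10 reads were dropped. Fitness is the log change in each variant's read ratio to wild type, rescaled against the cognate and non-cognate sites.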

one-hybrid fitness for binding parS DNA, ≤ 0.2:
THYC
VRHS
VGST
YPWG
IKTR
TVKF
KWDR
DYCR
KDDR
MTQT
RFQI
MQPG
LFYR
VDYC
WSTR
CVHR
HTGK
HSTW
VKWL
LMKQ
LGEA
EHDG
PCCA
NQQG
PIRP
AHLK
VPKM
VRKC
QGAL
FLRR
SMGT
QDSI
QVLR
PTVK
EEPS
EHMY
WAWR
PKNV
SVAG
DTSC
CSAR
SKSY
IKFC
NAGI
SSRE
TNDE
MDIK
LALN
HELG
NNMR
VQAT
MTRH
LQHS
MESW
WQRW
TRGS
FLSR
VRTW
AIRC
LSYV
QQCY
ETSG
KRVT
RQFF
PWTP
NWPS
SSCP
ITTK
ARFC
CESW
AQEM
CKTL
HHSE
VQLR
YKIG
QCAD
TNHG
PWLL
IPHF
IVQA
PNFG
ERMR
ALQD
SRTP
